Measurements as given in PubChem BioAssay (NCI).
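Results reflect a 48-hour exposure of cells in 96-well plates to compound at five concentrations. GI50: concentration for 50% inhibition of growth.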 For part of its entries the source gives two or more results. The other results are left out here. An entry can have further records. For some of these results: The values listed for one entry repeat one measurement in other runs, samples, wells, individuals or studies. What stands in brackets tells the records apart. The letters are not those of the source and start again with each entry.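 At the TGI there is no net growth.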 For some of these results: The tests behind the records often covered other concentration ranges, which the source does not state; a value can be the end of its range.

Key:
Test in all cases: DTP human tumour cell line panel, 48 h
[1] = tested on: LOX IMVI melanoma
[2] = tested on: RPMI-8226 leukemia
[3] = tested on: BT-549 breast
[4] = tested on: NCI-H460 lung
[5] = tested on: SF-539 CNS
[6] = tested on: SK-MEL-2 melanoma
[7] = tested on: SF-268 CNS
[8] = tested on: ACHN renal
[9] = tested on: SNB-75 CNS
[10] = tested on: CCRF-CEM leukemia
[11] = tested on: NCI-H23 lung
[12] = tested on: UO-31 renal
[13] = tested on: HCT-15 colon
[14] = tested on: SN12C renal
[15] = tested on: UACC-257 melanoma
[16] = tested on: CAKI-1 renal
[17] = tested on: OVCAR-8 ovarian
[18] = tested on: HOP-62 NSCLC
[19] = tested on: MOLT-4 leukemia
[20] = tested on: UACC-62 melanoma
[21] = tested on: HS 578T breast
[22] = tested on: M19-MEL melanoma
[23] = tested on: HL-60(TB) leukemia
[24] = tested on: LXFL 529 NSCLC
[25] = tested on: DMS 114 small cell lung
[26] = tested on: COLO 205 colon
[27] = tested on: DLD-1 colon
[28] = tested on: NCI-H522 lung
[29] = tested on: A549 NSCLC
[30] = tested on: SW-620 colon
[31] = tested on: OVCAR-5 ovarian
[32] = tested on: NCI/ADR-RES ovarian
[33] = tested on: U251 CNS
[34] = tested on: HOP-92 NSCLC
[35] = tested on: XF 498 CNS
[36] = tested on: OVCAR-4 ovarian
[37] = tested on: PC-3 prostate
[38] = tested on: NCI-H226 lung

O=S(=O)(c1ccc2c(c1)C(=NO)c1cc(S(=O)(=O)N3CCCCC3)ccc1-2)N1CCCCC1
GI50 [1]: 177 nM [sample A, 1 test] and 11.5 nM [sample B, mean of 2 tests]
TGI [1]: 342 nM [sample A, 1 test] and 25.4 nM [sample B, mean of 2 tests]

Nc1ccn(C2OC(CO[P+](=O)OC3C(CO[P+](=O)OC4C(CO[P+](=O)OC5C(CO[P+](=O)OC6C(CO[P+](=O)OC7C(CO[P+](=O)OC8C(CO[P+](=O)OC9C(CO[P+](=O)OC%10C(CO[P+](=O)OC%11C(CO)OC(n%12ccc(N)nc%12=O)C%11(F)F)OC(n%11ccc(N)nc%11=O)C%10(F)F)OC(n%10ccc(N)nc%10=O)C9(F)F)OC(n9ccc(N)nc9=O)C8(F)F)OC(n8ccc(N)nc8=O)C7(F)F)OC(n7ccc(N)nc7=O)C6(F)F)OC(n6ccc(N)nc6=O)C5(F)F)OC(n5ccc(N)nc5=O)C4(F)F)OC(n4ccc(N)nc4=O)C3(F)F)C(O)C2(F)F)c(=O)n1 (stereo not given)
TGI [2]: 4.11 µM and > 100 µM
TGI [3]: 3.09 µM and > 100 µM
TGI [4]: 2.65 µM and > 100 µM
TGI [5]: 3.82 µM and > 100 µM
TGI [6]: 8.79 µM and > 100 µM
TGI [7]: 636 nM and > 100 µM
TGI [8]: 5.43 µM and > 100 µM
TGI [9]: 891 nM and 44 µM
TGI [10]: 636 nM and 20 µM
TGI [11]: 358 nM and > 100 µM
TGI [12]: 1.28 µM and > 100 µM
TGI [13]: 4.46 µM and > 100 µM
TGI [14]: 637 nM and 18.7 µM
TGI [15]: 5.27 µM and > 100 µM
TGI [16]: 6.04 µM and > 100 µM
TGI [17]: 9.81 µM and > 100 µM
TGI [18]: 7.8 µM and 94.5 µM
TGI [19]: 1.26 µM and 33.3 nM
TGI [20]: 1.9 µM and 53.4 nM
TGI [21]: 9.07 µM and > 100 µM

O=C1C(CN(Cc2ccccc2)Cc2ccccc2)CCCC1CN(Cc1ccccc1)Cc1ccccc1 (stereo not given)
GI50 [2]: 2.09 µM [sample A, mean of 3 tests] and > 92.5 µM [sample B, mean of 3 tests]
GI50 [22]: 7.11 µM [sample A, mean of 2 tests] and > 100 µM [sample B, 1 test]
GI50 [23]: 5.71 µM [sample A, mean of 3 tests] and > 96.4 µM [sample B, mean of 3 tests]
GI50 [24]: 5.23 µM [sample A, mean of 2 tests] and > 100 µM [sample B, 1 test]
TGI [24]: 9.61 µM [sample A, mean of 2 tests] and > 100 µM [sample B, 1 test]
GI50 [25]: 5.31 µM [sample A, mean of 2 tests] and > 100 µM [sample B, 1 test]
GI50 [26]: 2.66 µM [sample A, mean of 2 tests] and > 84.2 µM [sample B, mean of 3 tests]
TGI [26]: 7.72 µM [sample A, mean of 2 tests] and > 100 µM [sample B, mean of 3 tests]
GI50 [16]: 6 µM [sample A, mean of 2 tests] and > 100 µM [sample B, mean of 2 tests]
GI50 [27]: 5.15 µM [sample A, mean of 2 tests] and > 100 µM [sample B, 1 test]
GI50 [19]: 8.14 µM [sample A, mean of 2 tests] and > 100 µM [sample B, mean of 3 tests]
GI50 [28]: 194 nM [sample A, mean of 2 tests] and > 100 µM [sample B, mean of 3 tests]
TGI [28]: 471 nM [sample A, mean of 2 tests] and > 100 µM [sample B, mean of 3 tests]

C=C1CCCC(C)(C)[C@@H]1CC/C(C)=C/Cn1c2cccc(=O)c-2nc2ccccc21
TGI [29]: > 100 µM and 3.52 µM
TGI [30]: > 100 µM and 3.18 µM
TGI [22]: > 100 µM and 2.68 µM
TGI [4]: 55 µM and 2.53 µM
TGI [31]: 92.3 µM and 8.03 µM
TGI [32]: > 100 µM and 2.23 µM
TGI [6]: > 100 µM and 6.11 µM
TGI [33]: 56.9 µM and 3.11 µM
TGI [26]: > 100 µM and 3.94 µM
TGI [34]: > 100 µM and 7.19 µM
TGI [11]: > 100 µM and 3.15 µM
TGI [12]: > 100 µM and 8.99 µM
TGI [13]: > 100 µM and 2.43 µM
TGI [14]: > 100 µM and 3.25 µM
TGI [17]: > 100 µM and 4.32 µM
TGI [27]: 56.8 µM and 2.64 µM
TGI [35]: > 100 µM and 7.54 µM
TGI [36]: > 100 µM and 4.09 µM

CCNC(=O)Nc1ccc(-c2nc3c(c(N4CCOC[C@@H]4C)n2)CCN(C2COC2)C3)cc1
TGI [37]: > 100 µM [sample A, mean of 2 tests] and 4.98 µM [sample B, mean of 2 tests]
TGI [38]: > 36.9 µM [sample A, mean of 2 tests] and 1.37 µM [sample B, mean of 2 tests]
